# Assay results: PubChem BioAssay AID602179 (National Center for Advancing Translational Sciences (NCATS), 2012)
# The campaign covered roughly 390,000 compounds. About 360 (0.092%) were called active. Inconclusive results, whose numbers are uncertain, are shown with a selection of clear calls. Calls come from the whole dose curve; as a rule, active = well fitted inhibition curve with a large enough effect; inconclusive = small, poorly fitted or top-dose-only effect; inactive = no such curve, though single readings can be large or run the other way. Where the call is inconclusive, the potency comes from a doubtful curve fit.
# Target: Isocitrate dehydrogenase [NADP] cytoplasmic (Homo sapiens) (UniProt O75874)
# Assay: qHTS for Inhibitors of mutant isocitrate dehydrogenase 1 (IDH1): qHTS; note: nearly all actives have a fitted effect of over 65% in size
# Details: IDH1-R132H enzyme, NADPH consumption, diaphorase/resazurin fluorescence; series mostly up to 76.6 µM; activity change, negative = inhibition: at the top concentration
# In short: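 IDH1-R132H (0.5 ug/mL) preincubated 30 min with compound, then NADPH (0.016 mM) and alpha-KG (2 mM) added; 80 min at RT, pH 7.5. Remaining NADPH coupled via diaphorase/resazurin to fluorescence (540/590 nm); concentration-response curves normalized to no-enzyme control.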
# % is set by controls: 0 for no effect and ±100 for the full control effect; potency is the fitted concentration of half-maximal effect; tags give direction and shape of the fitted curve.
SMILES,Potency,"activity change, negative = inhibition"
Cn1cccc1C(C(=O)NC1CCCCC1)N(C(=O)Cc1cccs1)c1ccc2c(c1)OCO2 (stereo not drawn),"inconclusive: 10.4 µM [inhibitor, full curve]",
Cc1cc(C(=O)C(C)OC(=O)c2cnccn2)c(C)n1-c1ccccc1 (stereo not drawn),,inactive: 2.42%
COc1ccc(Cn2c(C3CCCCC3)nc3c(c(=O)c4ccccc4n3C)c2=O)cc1,"inconclusive: 46.5 µM [inhibitor, single point]",
O=C(C=Cc1cccnc1)c1ccccc1,,inactive: 1.12%
Cc1c(/C=N/NC(=O)c2cc(=O)[nH]c(=O)[nH]2)c2ccccn2c1C(=O)c1ccccc1,"inconclusive: 16.5 µM [inhibitor, full curve]",
CC[C@H](C)C(=O)O[C@H]1C[C@@H](C)C=C2C=C[C@H](C)[C@H](CC[C@@H]3C[C@@H](O)CC(=O)O3)[C@H]21,"inconclusive: 50.1 µM [inhibitor, single point]",
COc1cccc(NS(=O)(=O)c2ccc3[nH]cc(C(=O)NCCc4ccc(C)cc4)c(=O)c3c2)c1,"inconclusive: 63.1 µM [inhibitor, single point]",
C/C=C(\C)CN1CCN(c2cc(C)ccc2C)CC1,,inactive: 8.41%
COc1ccc(-c2cnnn2-c2ccc(NC(=O)c3ccc(S(=O)(=O)N4CCCCC4)cc3)cc2)cc1OC,,inactive: 1.03%
COc1cc2cnc(-c3ccccc3)c(-c3ccc(C(F)(F)F)cc3)c2cc1OC,"inconclusive: 39.8 µM [inhibitor, partial curve]",
O=C(NC1CCCC1)C(c1ccccc1F)N(C(=O)c1csnn1)c1ccccc1 (stereo not drawn),"inconclusive: 35.5 µM [inhibitor, partial curve]",
O=C1/C(=C/c2cccnc2)Oc2cc(OS(=O)(=O)c3ccccc3)ccc21,"inconclusive: 44.7 µM [inhibitor, partial curve]",
O=S(=O)(Nc1ccc(S(=O)(=O)Nc2nccs2)cc1)c1ccc(Br)cc1,"inconclusive: 52.1 µM [inhibitor, partial curve]",
Cc1ccc(C)c(NC(=O)C(NS(=O)(=O)c2ccc3c(c2)CCC(=O)N3)c2ccccc2)c1 (stereo not drawn),,inactive: 0%
Nc1nonc1-c1nc2ccccc2n1CC(=O)Nc1ccc(F)cc1,"inconclusive: 44.7 µM [inhibitor, single point]",
COc1ccc(N(C(=O)Cc2cccs2)C(C(=O)NC2CCCCC2)c2cccn2C)cc1 (stereo not drawn),"inconclusive: 23.3 µM [inhibitor, full curve]",
COc1cccc(-c2coc3c(C)c4oc(=O)c(CCC(=O)O)c(C)c4cc23)c1,active: 26.1 µM,
COc1ccc(CN(CCC(c2ccccc2)C2CCOC(C)(C)C2)C(C)=O)cc1 (stereo not drawn),"inconclusive: 44.7 µM [inhibitor, single point]",
N#CC(=C1C=CC(=NO)C(Cl)=C1)c1ccc(Cl)cc1,"inconclusive: 58.5 µM [inhibitor, single point]",
Cc1cc(O)c(C(C)C)cc1C1(c2cc(C(C)C)c(O)cc2C)OC(=O)c2ccccc21,active: 16.5 µM,
Cc1ccc(Cl)cc1N1CCN(C(=O)Cc2c(C(=O)O)[nH]c3ccc(Cl)cc23)CC1,"inconclusive: 46.5 µM [inhibitor, single point]",

SMILES,Potency,"activity change, negative = inhibition"
CCCc1cc2c(-c3ccccc3)cc(=O)oc2cc1OCc1ccc(C(=O)O)o1,"inconclusive: 50.1 µM [inhibitor, single point]",
COc1ccc(/C=c2\s/c(=C/C(=O)c3ccc(C)cc3)[nH]c2=O)c(OC)c1,,inactive: -1.39%
CCOc1cc(C2c3c(-c4ccccc4O)n[nH]c3C(=O)N2CCc2ccccc2)ccc1O (stereo not drawn),"inconclusive: 39.8 µM [inhibitor, partial curve]",
COCCNc1ncnc2c1c(-c1ccccc1)cn2-c1cccc(Cl)c1,"inconclusive: 44.7 µM [inhibitor, partial curve, poor fit]",
CC(=O)O[C@@H]1[C@@H](O)[C@@H](O)[C@H](Oc2c(-c3ccc(O)cc3)oc3c(CC=C(C)C)c(O)cc(O)c3c2=O)O[C@H]1C,"inconclusive: 50.1 µM [inhibitor, single point]",
O=C(CCS(=O)(=O)c1ccc(Br)s1)NC1CCCC1,,inactive: 0.742%
Cc1sc2nc(C3CCCCC3)nc(SCC(=O)N3CC(=O)Nc4ccccc43)c2c1C,,inactive: 1.85%
CC1(c2ccccc2)CC(C)(C)N2C(=O)C3(C(C#N)=C(N)Oc4cc(O)ccc43)c3cccc1c32 (stereo not drawn),"inconclusive: 58.5 µM [inhibitor, single point]",
Cc1cccc(N2C(=O)CCSC23C(=O)N(Cc2ccc(F)cc2)c2ccccc23)c1 (stereo not drawn),"inconclusive: 12.6 µM [inhibitor, partial curve, poor fit]",
O=C(CN1CCC(n2nnc3cc(F)ccc32)CC1)NC1CC1,,inactive: 0.923%
CSc1nn(Cc2ccc(Br)cc2)c(N(C(C)=O)C(C)=O)c1S(=O)(=O)c1ccccc1,"inconclusive: 44.7 µM [inhibitor, partial curve, poor fit]",
O=C(N/N=C/c1cccnc1)c1cc(-c2ccc(Br)cc2)nc2ccccc12,,inactive: -2.9%
CC(C)C[C@@H](CN1CCC[C@@H]1CN1C(=O)C(=O)NC[C@@H]1Cc1ccccc1)N1C[C@H](Cc2ccc(O)cc2)N(CC2CCCCC2)C(=O)C1=O,"inconclusive: 44.7 µM [inhibitor, single point]",
COc1cc(OC)c(-c2c3cc(O)c(=O)cc-3oc3cc(O)c(O)cc23)cc1OC,active: 11.7 µM,
COc1cc(C2c3c(-c4cc(Cl)c(C)cc4O)n[nH]c3C(=O)N2Cc2cccnc2)ccc1O (stereo not drawn),"inconclusive: 44.7 µM [inhibitor, single point]",
COc1ccccc1N1CCN(C(=O)CNC(=O)c2cn(-c3ccccc3OC)c(=O)c3ccccc23)CC1,,inactive: 3.26%
CCN1CCN(c2nc3c(C)cccn3c(=O)c2/C=C(\C#N)S(=O)(=O)c2ccc(Cl)cc2)CC1,"inconclusive: 58.5 µM [inhibitor, single point]",
C=CCn1c(SCC(=O)N2CCN(C(=O)c3ccco3)CC2)nc2sc(CC)cc2c1=O,"inconclusive: 16.5 µM [inhibitor, single point]",
N#Cc1c[nH]n2c(NC3CCCC3)c(-c3cccc(Br)c3)nc12,"inconclusive: 50.1 µM [inhibitor, single point]",
CC(=O)N1CCc2c(sc3c2c(=O)n(-c2cccc(Cl)c2C)c(=O)n3Cc2ccccc2C)C1,"inconclusive: 28.2 µM [inhibitor, full curve]",
CCCc1cc(=O)oc2c3c(c4c(c12)OC(C)(C)C=C4)OC(C)C(C)C3O (stereo not drawn),"inconclusive: 44.7 µM [inhibitor, single point]",

SMILES,Potency,"activity change, negative = inhibition"
CCC(CO)Oc1cc(NCc2ccc(C(=O)O)cc2)c2ncn(C(C)C)c2c1 (stereo not drawn),"inconclusive: 50.1 µM [inhibitor, single point]",
COc1ccc(C2CC(c3ccncc3)=NN2c2ccc(S(N)(=O)=O)cc2)cc1 (stereo not drawn),"inconclusive: 44.7 µM [inhibitor, partial curve, poor fit]",
Cc1cc(N(CCO)CCO)ccc1C(c1ccc(N(CCO)CCO)cc1C)c1ccccc1Cl,active: 26.1 µM,
CCCc1nc2c(c(=O)c3ccccc3n2C)c(=O)n1C1CCCCCC1,active: 46.5 µM,
COc1ccccc1CNCC(=O)Nc1cc(S(=O)(=O)N2CCCCC2)ccc1C,,inactive: -1.21%
Cc1ncc(CO)c(/C=N/NC(=S)Nc2ccc(Cl)c(Cl)c2)c1O,"inconclusive: 58.5 µM [inhibitor, single point]",
COc1cc(/C=N/n2c(-c3cc(C)[nH]n3)n[nH]c2=S)cc(OC)c1OC,,inactive: 8.94%
C[C@@H]1C[C@H]2[C@@H]3CCC4=CC(=O)C=C[C@]4(C)[C@@]3(Cl)[C@@H](O)C[C@]2(C)[C@@]1(OC(=O)c1ccco1)C(=O)CCl,active: 35.5 µM,
CCc1ccc(Nc2n[n+](-c3ccccc3)c(-c3c(Cl)cccc3Cl)s2)cc1,"inconclusive: 15.8 µM [inhibitor, full curve, poor fit]",
CCN1CC=C2C(C1)C(c1ccc(Cl)s1)C(C#N)=C(N)C2(C#N)C#N (stereo not drawn),"inconclusive: 10.4 µM [inhibitor, partial curve, poor fit]",
O=c1[nH]c(CN(CCc2ccccc2)S(=O)(=O)c2ccc(Cl)cc2)nc2ccccc12,"inconclusive: 36.9 µM [inhibitor, partial curve]",
O=c1cc(-c2ccc(O)cc2)oc2c(O)c(O)c(O)c(O)c12,"inconclusive: 70.8 µM [inhibitor, single point]",
O=C(O)c1ccc(/C=C(\c2nc3ccccc3[nH]2)c2nc3ccccc3s2)cc1,"inconclusive: 58.5 µM [inhibitor, single point]",
Cc1cc(/C=N/O)c(C)n1-c1ccc(Br)cc1,,inactive: 5.86%
COc1cc(/C=C2\SC(=Nc3ccccc3)N(CCc3c[nH]c4ccccc34)C2=O)ccc1OC(C)C(=O)O (stereo not drawn),"inconclusive: 44.7 µM [inhibitor, partial curve, poor fit]",
O=Cc1ccc(-c2cccc([N+](=O)[O-])c2)o1,,inactive: 6.99%
C/C(=N\NC(=O)c1ccccn1)c1ccc(Cl)cc1,"inconclusive: 58.5 µM [inhibitor, single point]",
Cc1ccc(-c2nn3c(-c4ccccc4C)nnc3c3ccccc23)cc1,active: 39.8 µM,
COc1ccc(C(C#N)N2CCC(c3ccccc3)=N2)cc1 (stereo not drawn),,inactive: 9.14%
CCOC(=O)c1cc(C)sc1/N=C/C1=C(O)CCCC1=O,,inactive: 8.44%
COc1ccc(C2CC(=O)c3cc(-c4nc(-c5cccc([N+](=O)[O-])c5)cs4)c(=O)n(-c4ccccc4)c3C2)cc1 (stereo not drawn),"inconclusive: 50.1 µM [inhibitor, single point]",
